From PubChem BioAssay AID1476 (National Center for Advancing Translational Sciences (NCATS), 2009)
Out of some 200,000 compounds screened, about 4,500 (2.2%) were called active. Inconclusive results, whose numbers are uncertain, are shown with a selection of clear calls. The call rests on the fitted dose curve; in most records, active means well fitted inhibition curve with a large enough effect; inconclusive means small, poorly fitted or top-dose-only effect, or effect the other way; inactive means flat fitted curve, though single readings scatter. Potencies of inconclusive entries are doubtful fits and often do not repeat.
Further: nearly all actives have a fitted effect of over 40% in size.
Potency means the concentration at half of the fitted maximal effect; tags describe the fitted curve by direction and shape.
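Wherever max response, negative = inhibition is given: plate controls were enzyme without inhibitor for no effect and buffer without enzyme for full effect.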

What follows are molecules tested against Cruzipain (Trypanosoma cruzi) (UniProt P25779) (assay: qHTS Assay for Promiscuous and Specific Inhibitors of Cruzain (without detergent)). Details: purified cruzain, Z-FR-AMC fluorescence, no detergent.
UniProt P25779, sequence (P25779 whole entry, looked up): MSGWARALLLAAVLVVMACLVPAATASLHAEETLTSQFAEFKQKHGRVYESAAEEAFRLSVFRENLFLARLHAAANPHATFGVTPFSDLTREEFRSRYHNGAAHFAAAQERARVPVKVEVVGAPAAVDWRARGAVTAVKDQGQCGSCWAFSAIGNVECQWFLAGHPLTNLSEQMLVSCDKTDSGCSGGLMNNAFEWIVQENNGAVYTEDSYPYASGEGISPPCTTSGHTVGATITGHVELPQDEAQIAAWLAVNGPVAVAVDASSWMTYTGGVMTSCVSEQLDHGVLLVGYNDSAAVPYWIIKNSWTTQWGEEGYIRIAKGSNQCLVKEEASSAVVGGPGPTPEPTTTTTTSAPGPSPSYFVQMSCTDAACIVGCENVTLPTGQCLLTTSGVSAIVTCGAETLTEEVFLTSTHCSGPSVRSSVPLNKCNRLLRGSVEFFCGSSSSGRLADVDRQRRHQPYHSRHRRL
How it was run: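 Detergent-free condition (0.00005% Triton X-100) in acetate buffer pH 5.5 with DTT. 1.5 nM enzyme and compound were pre-mixed 15 min, then 2 uM Z-FR-AMC substrate added; reaction progress from fluorescence change between first and third reads (60 s).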
With `CCOC(=O)c1c(C)n(C)c2cc(-c3ccc(F)cc3)c(O)cc12` the Potency was inconclusive: 25.1 µM [inhibitor, single point]. With `O=C(CC1(O)C(=O)N(Cc2cccc3ccccc23)c2ccccc21)c1cccnc1` (centres undefined) the Potency was inconclusive: 39.8 µM [activator, single point]. `CC[N+]1(C)[C@@H]2CC[C@H]1CC(OC(=O)[C@H]1CC[C@@](C(=O)OC3C[C@H]4CC[C@@H](C3)[N+]4(C)CC)(c3ccccc3)c3ccccc31)C2` (some centres undefined) was tested, and the max response, negative = inhibition was inactive: -12.1%. In the case of `CC(C)Sc1n[nH]c2nc3c(c(=O)n12)C1(CCCC1)Cc1ccccc1-3`, the Potency is reported as inconclusive: 31.6 µM [inhibitor, single point]. In the case of `COCCCNC(=O)C(C)n1c2ccccc2c2cnn(C)c(=O)c21` (centres undefined), the max response, negative = inhibition is reported as inactive: -0.498%. With `COc1ccc(NC(=O)N2CCN(S(=O)(=O)c3ccc4c(ccn4C)c3)CC2)cc1OC` the Potency was inconclusive: 25.1 µM [activator, single point]. In the case of `c1ccc(-c2nc(N3CCN(c4ccccc4)CC3)nc(-n3ccnc3)n2)cc1`, the Potency is reported as inconclusive: 39.8 µM [inhibitor, single point]. For `CCC1CN(C(=O)NCc2ccccc2)c2cc(C)ccc2O1` (centres undefined), the Potency was inconclusive: 31.6 µM [inhibitor, single point]. With `CN1/C(=C\C(=O)CSc2nnc(NCc3ccccc3)s2)C(C)(C)c2ccccc21` the Potency was inconclusive: 31.6 µM [inhibitor, single point]. `O=c1oc2ccccc2cc1-c1csc(NN=C2CCCCC2)n1` was tested, and the Potency was active: 20 µM. In the case of `CCNC(=O)/C(C#N)=C/c1c(N(Cc2ccccc2)Cc2ccccc2)nc2ccccn2c1=O`, the Potency is reported as inconclusive: 31.6 µM [activator, single point]. In the case of `Cc1ccc(-n2ncc(C(=O)NCc3ccccn3)c2C2CCN(C(=O)OC(C)(C)C)CC2)c(C)c1`, the Potency is reported as inconclusive: 39.8 µM [activator, single point]. In the case of `Cc1ccc2occ(CC(=O)Nc3ccc(S(=O)(=O)N4CCCC(C)C4)cc3)c2c1` (centres undefined), the Potency is reported as inconclusive: 25.1 µM [inhibitor, single point]. In the case of `COc1ccc(NC(=O)CN2C(=O)CSc3ccc(S(=O)(=O)N(C)C)cc32)cc1Cl`, the Potency is reported as inconclusive: 31.6 µM [inhibitor, single point]. With `O=C(Nc1ccc(Cl)c(C(F)(F)F)c1)c1ccc2c(c1)CCN2S(=O)(=O)c1ccccc1` the Potency was active: 25.1 µM. In the case of `CC(=O)Nc1nc(C)c(-c2csc(Nc3ccc(O)cc3)n2)s1`, the Potency is reported as active: 12.6 µM. With `CCCCn1cnc2sc3c(c2c1=N)CCCC3` the max response, negative = inhibition was inactive: 5.53%. `CCC1=C(OC(=O)N(CC)CC)N2C(=O)OC(=NCC3CC3)[C@]2(C)[C@H]2C1=CC[C@H]1C(=O)N(CC)C(=O)[C@H]12` was tested, and the Potency was inconclusive: 39.8 µM [activator, single point]. For `Cc1c(O)c(CN2CCCCC2)cc2c3c(c(=O)oc12)CCC3`, the Potency was inconclusive: 15.8 µM [activator, partial curve]. `CCC(=O)NC(=S)Nc1ccc(NC(=O)c2ccc(C)c([N+](=O)[O-])c2)cc1` was tested, and the Potency was active: 10 µM. With `COc1ccc(/C=N/NC(=S)Nc2ccccc2)cc1COc1ccc(F)cc1` the Potency was active: 7.94 µM. With `CC1/C=C/C=C/C=C/C=C/C=C/C=C/C=C/C(OC2OC(C)C(O)C(N)C2O)CC2O[C@@](O)(CC(O)CC(O)C(O)CCC(O)CC(O)CC(=O)OC(C)[C@H](C)C1O)CC(O)C2C(=O)O` (some centres undefined) the Potency was inconclusive: 1.58 µM [activator, single point]. In the case of `CCC(=O)N1CCN(c2ccc(Cl)cc2NC(=O)c2ccc3c(c2)OCCO3)CC1`, the Potency is reported as inconclusive: 39.8 µM [activator, single point]. With `CCOc1cc(/C=C2/NC(=O)N(CC(=O)Nc3cccc(C)c3)C2=O)ccc1O` the Potency was inconclusive: 15.8 µM [inhibitor, partial curve]. In the case of `COc1ccc(Oc2ncc3ncc(=O)n(C[C@H]4CCCO4)c3n2)cc1`, the max response, negative = inhibition is reported as inactive: 7.61%. For `N#Cc1cnn(-c2nc(SCc3ccccc3)nc3sc4c(c23)CCCC4)c1N`, the Potency was inconclusive: 39.8 µM [inhibitor, single point]. In the case of `COC(=O)c1ccc(NC(=O)CN(c2ccc(C)cc2)S(=O)(=O)c2c(C)nn(C)c2C)cc1`, the Potency is reported as inconclusive: 25.1 µM [activator, single point]. In the case of `Cc1ccc2nc(-c3ccc(NC(=O)CCN4C(=O)c5ccccc5C4=O)cc3)sc2c1`, the Potency is reported as inconclusive: 25.1 µM [activator, single point]. For `O=C(CCC1N=C2c3ccccc3N=C(SCc3cccc(F)c3)N2C1=O)NCCc1ccccc1` (centres undefined), the Potency was inconclusive: 31.6 µM [activator, single point]. `O=C(Nc1nc(-c2cccc(Br)c2)cs1)Oc1ccccc1` was tested, and the Potency was inconclusive: 39.8 µM [inhibitor, single point]. With `COc1ccc(-c2cc(C(=O)Nc3ccc(C)cc3)no2)cc1` the Potency was active: 20 µM. With `Cc1cc(C)c(N(C(=O)CN2C(=O)c3ccccc3S2(=O)=O)C(C(=O)NCC2CCCO2)c2ccc(F)cc2)c(C)c1` (centres undefined) the Potency was inconclusive: 25.1 µM [activator, partial curve]. `Cc1noc(NS(=O)(=O)c2ccc(NC(=O)CCC3CCCCC3)cc2)c1C` was tested, and the Potency was inconclusive: 39.8 µM [activator, single point]. In the case of `Cc1cc(F)ccc1NC(=O)C1CCN(C(=O)c2cnn(-c3ccccc3)c2-n2cccc2)CC1`, the Potency is reported as inconclusive: 31.6 µM [activator, single point]. For `Cc1ccc(CNC(=O)CN2C(=O)CSc3ccc(S(=O)(=O)N(C)C)cc32)cc1`, the max response, negative = inhibition was inactive: 10.4%. In the case of `CCn1cc(C(=O)OCC(=O)Nc2cc(OC)cc(OC)c2)c(=O)c2ccc(C)nc21`, the max response, negative = inhibition is reported as inactive: 4.72%. For `CCCCSc1nnc(-c2ccc(C)cc2)c2ccccc12`, the max response, negative = inhibition was inactive: 14.3%. `COC(=O)c1ccc(CNC(=O)COC(=O)CC23CC4CC(CC(Br)(C4)C2)C3)cc1` was tested, and the Potency was inconclusive: 39.8 µM [activator, single point]. `CC(NC(=O)CCC(=O)N1CCN(S(=O)(=O)c2ccc(Cl)cc2)CC1)c1ccccc1` (centres undefined) was tested, and the Potency was inconclusive: 39.8 µM [activator, single point].
